From PubChem BioAssay AID1768 (National Center for Advancing Translational Sciences (NCATS), 2009)
The whole screen tested about 270,000 compounds, of which about 620 (0.23%) were called active. The inconclusive results got no clear call from the source; some entries with a clear call stand among them for comparison. Calls come from the whole dose curve; as a rule, active = well fitted inhibition curve with a large enough effect in the polarisation, with a control signal flat (not every such curve was filed as active); inconclusive = small, poorly fitted or top-dose-only effect, or effect the other way, or a change in a side signal; inactive = no such curve, though single readings can be large or run the other way; the % refers to the polarisation. A potency beside an inconclusive call is a rough fit, not a confirmed value. A note “side channel” means that the fit belongs to a control or component signal, not to the main read-out.

biological target: Menin (Homo sapiens) (UniProt O00255); experiment: qHTS Assay for Inhibitors Targeting the Menin-MLL Interaction in MLL Related Leukemias: Competition With Texas Red Labeled MLL-derived Mutant Peptide; details: fluorescence polarization; FP activity change, negative = inhibition: at 61.6 µM (top of the series); for FP activity change, negative = inhibition: % of control where 0% means no effect
Sequence of UniProt O00255 (O00255 whole entry, looked up): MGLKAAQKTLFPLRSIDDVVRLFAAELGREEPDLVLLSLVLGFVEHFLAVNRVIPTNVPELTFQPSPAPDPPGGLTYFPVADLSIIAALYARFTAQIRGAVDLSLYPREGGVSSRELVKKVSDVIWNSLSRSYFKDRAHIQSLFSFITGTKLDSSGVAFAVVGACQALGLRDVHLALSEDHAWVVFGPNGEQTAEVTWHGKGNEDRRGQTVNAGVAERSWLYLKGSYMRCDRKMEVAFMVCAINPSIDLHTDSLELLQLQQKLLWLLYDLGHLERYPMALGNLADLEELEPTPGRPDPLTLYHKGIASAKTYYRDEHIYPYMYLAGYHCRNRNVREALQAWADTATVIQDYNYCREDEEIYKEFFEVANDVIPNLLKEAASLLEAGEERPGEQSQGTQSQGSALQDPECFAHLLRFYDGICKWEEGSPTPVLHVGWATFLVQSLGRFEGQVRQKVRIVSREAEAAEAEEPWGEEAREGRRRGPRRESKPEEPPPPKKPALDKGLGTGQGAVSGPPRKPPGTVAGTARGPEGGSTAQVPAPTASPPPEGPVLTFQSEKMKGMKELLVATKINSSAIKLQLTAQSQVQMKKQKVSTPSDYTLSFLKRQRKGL
Potency is the fitted concentration of half-maximal effect; tags give direction and shape of the fitted curve or compound fluorescence and quenching.

| SMILES | Potency | FP activity change, negative = inhibition |
| --- | --- | --- |
| COc1ccccc1NC(=O)Cc1nnc(SCC(=O)c2ccccc2)n1C | inconclusive: 35.5 µM [fluorescent, side channel, single point] | – |
| C=C(C)COc1ccc(-c2n[nH]c(C)c2-c2ccccc2OC)c(O)c1 | inconclusive: 28.2 µM [quencher, side channel, single point] | – |
| Cc1nnc(SCCCn2c(N3CCN(c4ccccc4)CC3)nc3c2c(=O)[nH]c(=O)n3C)s1 | inconclusive: 14.1 µM [inhibitor, partial curve] | – |
| CN(C)c1nc(-c2cn(CCC#N)c3ccccc23)cs1 | inconclusive: 25.1 µM [quencher, side channel, partial curve] | – |
| COc1cc(/C=N/Nc2cccc(C)c2)cc(Br)c1O | inconclusive: 11.2 µM [quencher, side channel, partial curve] | – |
| COc1cc(-n2c(=O)c3ccccc3n(CC(=O)c3ccccc3)c2=O)cc(OC)c1OC | inconclusive: 17.8 µM [fluorescent, side channel, partial curve] | – |
| Cc1sc2ncnc(N/N=C/c3cccc(O)c3)c2c1C | inconclusive: 14.1 µM [quencher, side channel, partial curve] | – |
| Cc1ccccc1OCc1nc2ccccc2c(=O)n1/N=C/c1c[nH]c2ccccc12 | inconclusive: 3.16 µM [quencher, single point] | – |
| CCC(COC)NCc1cn(-c2ccc(F)cc2F)nc1-c1ccccc1C (stereo unspecified) | inconclusive: 10 µM [fluorescent, side channel, partial curve] | – |
| O=C(CSc1nc(-c2cccs2)cc(C(F)(F)F)n1)NCc1ccccc1 | – | inactive: 5.47% |
| COc1ccc(CCC(=O)NCC2CCCCC2)cc1OC | inconclusive: 31.6 µM [quencher, side channel, single point] | – |
| CCC1CCCCN1C(=O)COC(=O)c1cc(Br)ccc1Cl (stereo unspecified) | inconclusive: 35.5 µM [fluorescent, side channel, single point] | – |
| CO/N=C(/C(=O)N[C@@H]1C(=O)N2C(C(=O)O)=C(CSc3nnnn3C)CS[C@H]12)c1csc(N)n1 | – | inactive: -1.96% |
| CCOC(=O)C1=C(N)Oc2ccc3ccccc3c2C1c1cccc(O)c1 (stereo unspecified) | inconclusive: 39.8 µM [quencher, side channel, single point] | – |
| CCN(CC)c1ccc(NC(=O)Nc2cccc3ccccc23)cc1 | inconclusive: 14.1 µM [quencher, side channel, partial curve] | – |
| CC(C)c1ccc(NC(=O)C(c2ccccc2)N(Cc2ccco2)C(=O)CC2NC(=O)NC2=O)cc1 (stereo unspecified) | inconclusive: 15.8 µM [fluorescent, side channel, partial curve] | – |
| CCC(C)(C)C(=O)Nc1ncc(S(=O)(=O)c2ccc([N+](=O)[O-])cc2)s1 | inconclusive: 17.8 µM [quencher, side channel, partial curve] | – |
| CCOC(=O)C1CCN(C2=C(NS(=O)(=O)c3ccc(Br)cc3)C(=O)c3ccccc3C2=O)CC1 | inconclusive: 39.8 µM [quencher, side channel, single point] | – |
| CCN(C(=O)c1cnc(N2CCN(c3ncccn3)CC2)c2ccccc12)c1cccc(Cl)c1 | inconclusive: 8.91 µM [fluorescent, side channel, full curve, poor fit] | – |

| SMILES | Potency | FP activity change, negative = inhibition |
| --- | --- | --- |
| COc1ccc(OC)c(NC(=O)Nc2ccc3c(c2)CCC3)c1 | inconclusive: 17.8 µM [quencher, side channel, partial curve] | – |
| O=C(NNc1nc2cc3c(cc2s1)OCO3)c1cccc(F)c1 | inconclusive: 39.8 µM [quencher, side channel, single point] | – |
| Cc1cc(SCC(=O)c2cccs2)n2nc(C)c(-c3ccc(Cl)cc3)c2n1 | inconclusive: 15.8 µM [quencher, side channel, partial curve] | – |
| O=C(O)[C@@H]1[C@@H]2C[C@H]3c4[nH]c5ccccc5c4CCN3C[C@@H]2CC[C@@H]1O | – | inactive: -24.2% [at 24.8 µM] |
| O=C(COc1ccc(Cl)cc1)NN=C1CCCCCCC1 | inconclusive: 11.2 µM [fluorescent, side channel, partial curve] | – |
| COC(=O)c1cn(NC(=O)c2ccc(OC)c([N+](=O)[O-])c2)c(=O)c2ccccc12 | inconclusive: 35.5 µM [quencher, side channel, single point] | – |
| COc1ccc(NC(=O)c2ccccc2O)c(OC)c1 | inconclusive: 31.6 µM [quencher, side channel, single point] | – |
| Cc1noc(NS(=O)(=O)c2ccc(NC(=O)c3oc4ccc(F)cc4c3C)cc2)c1C | inconclusive: 14.1 µM [quencher, side channel, partial curve] | – |
| CCSc1nnc(NC(=O)c2cccc(S(=O)(=O)N(C)c3ccc(C)cc3)c2)s1 | inconclusive: 35.5 µM [quencher, side channel, single point] | – |
| C/C(=N\Nc1ncnc2sc(C)c(C)c12)c1ccccn1 | – | inactive: 2.62% |
| CCOC(=O)N1CCC(NC(=O)c2cc(C(=O)Nc3ccc(S(=O)(=O)N4CCCCC4)cc3)ccc2CO)CC1 | inconclusive: 39.8 µM [fluorescent, side channel, single point] | – |
| COc1ccc(N=Nc2ccc(N)nc2N)cc1 | inconclusive: 17.8 µM [quencher, side channel, partial curve] | – |
| CCOC(=O)c1ccc([N+](=O)[O-])c(CS(=O)(=O)c2ccc(Cl)cc2)c1 | inconclusive: 12.6 µM [quencher, side channel, partial curve] | – |
| O=C(CCS(=O)(=O)c1ccc(Br)cc1)N1CCN(c2ccccc2)CC1 | – | inactive: -15.4% |
| CCOc1ccc(S(=O)(=O)N/N=C2/CC(c3ccccc3)Oc3ccccc32)cc1 (stereo unspecified) | inconclusive: 10 µM [quencher, side channel, partial curve] | – |
| COCCN(Cc1cc2ccc(C)c(C)c2nc1Cl)C(=O)N1CCOCC1 | inconclusive: 22.4 µM [fluorescent, side channel, partial curve] | – |
| COc1ccc(-c2csc(NC(=O)c3ccccc3NS(=O)(=O)c3ccc(F)c(F)c3)n2)cc1 | inconclusive: 2.82 µM [quencher, side channel, partial curve] | – |
| C[C@H](NC(=O)[C@H](Cc1ccccc1)NC(=O)c1cc2cc(Cl)ccc2n1C)C(=O)O | inconclusive: 15.8 µM [quencher, side channel, single point] | – |
| COc1cc2c(cc1NC(=O)Nc1ccc(C)cc1)oc1ccccc12 | inconclusive: 8.91 µM [quencher, side channel, full curve] | – |

| SMILES | Potency | FP activity change, negative = inhibition |
| --- | --- | --- |
| CC(C)CNC(=S)NC1CC2CCCC(C1)N2C1CCCCC1 (stereo unspecified) | inconclusive: 7.08 µM [inhibitor, partial curve] | – |
| CCCCCCCOC(=O)c1ccc(OC(=O)c2cccnc2)cc1 | inconclusive: 25.1 µM [fluorescent, side channel, single point] | – |
| O=C(c1ccccc1-c1nc(-c2ccc(F)cc2)no1)N1CCCC1 | inconclusive: 28.2 µM [fluorescent, side channel, single point] | – |
| COc1ccc(-c2cc(-c3ccccc3)c(C#N)c(=S)[nH]2)cc1 | inconclusive: 11.2 µM [inhibitor, partial curve, poor fit] | – |
| COC(=O)N1C(/C=C/c2ccc3c(c2)OCO3)=Cc2ccccc2C1CC(C)=O (stereo unspecified) | – | inactive: -21.2% [at 11.7 µM] |
| CCOc1ccc(Nc2nc(Cc3nnc(SCC(=O)O)o3)cs2)cc1 | inconclusive: 25.1 µM [quencher, side channel, single point] | – |
| Cc1onc(-c2ccccc2Cl)c1C(=O)OCC(=O)Nc1cccc(S(=O)(=O)N2CCOCC2)c1 | inconclusive: 12.6 µM [quencher, side channel, partial curve] | – |
| O=C(N/N=C/c1ccc(O)c(O)c1)c1ccc(CSc2cccc3cccnc23)cc1 | inconclusive: 11.2 µM [quencher, side channel, partial curve] | – |
| O=C(N/N=C/c1cc2c(cc1Br)OCO2)c1c[nH]c2ccccc12 | inconclusive: 28.2 µM [quencher, side channel, single point] | – |
| O=C(Nc1cccc(Cl)c1)N1CCN2C(=O)c3ccccc3C12c1ccccc1 (stereo unspecified) | inconclusive: 31.6 µM [quencher, side channel, single point] | – |
| CC(C)(C)C1CCC(OCC(O)CN2CCN(c3ccccn3)CC2)CC1 (stereo unspecified) | inconclusive: 15.8 µM [fluorescent, side channel, partial curve] | – |
| CC(=O)c1ccc(N2CCN(c3ccccc3O)CC2)c([N+](=O)[O-])c1 | inconclusive: 35.5 µM [quencher, side channel, single point] | – |
| CN(C)c1ccc(/C=N/NC(=O)C(=O)N2CCCCCC2)cc1 | – | inactive: -23.2% |
| C/C(=N\NC(=O)C(C)Nc1cccc(Cl)c1)c1ccc([N+](=O)[O-])cc1 (stereo unspecified) | – | inactive: 11.4% |
| Cc1cc(N/N=C/c2ccc(O)cc2)nc(NS(=O)(=O)c2ccccc2)n1 | – | inactive: -2.65% |
| CCn1cc(S(=O)(=O)c2ccc(OC)cc2)c(=O)c2cc(OC)ccc21 | – | inactive: 7.54% |
| O=C(Nc1nc(-c2cccs2)c(-c2ccccc2)s1)c1ccco1 | inconclusive: 10 µM [quencher, side channel, partial curve] | – |
| O=C(/C=C/c1ccccc1)NC(=S)NNC(=O)Cc1cccs1 | inconclusive: 17.8 µM [quencher, side channel, partial curve] | – |
